# According to the supplement of paper PMC9446081:
# In all, about 39,000 compounds went through this assay and about 220 (0.56%) showed activity. Some of the results follow.
# System: Escherichia coli K-12 BW25113
# Experiment: relative growth (OD600 normalised to plate interquartile mean) (fraction); higher = less growth inhibition, active = 0.2 or less
# Conditions: 50 µM; LB; incubation time: overnight (16-24 h)
# 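Further: static incubation at 37 °C against the wild-type strain, values averaged over two biological replicates.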
row,Structure (SMILES),relative growth
1,Cc1cccc(-c2ccc3c(c2)O[C@H](CN(C)Cc2ccc(C(=O)O)cc2)CCN(C(C)C)S3(=O)=O)c1,inactive: 1.03
2,C[C@H](CO)N1C[C@H](C)[C@H](CN(C)C(=O)Nc2ccc(C(F)(F)F)cc2)OCCCC[C@H](C)Oc2ccc(NC(=O)Nc3ccccc3)cc2C1=O,inactive: 1.03
3,COc1ccc2c3c([nH]c2c1)[C@H](CO)N(Cc1ccc(cc1)Cl)C[C@]13CCN(CCc2ccccc2)CC1,inactive: 0.967
4,C[C@@H]1CCCCO[C@H](CN(C)C(=O)C2CCCCC2)[C@@H](C)CN([C@H](C)CO)C(=O)c2cc(NC(=O)Nc3ccccc3)ccc2O1,inactive: 0.975
5,COc1ccc(S(=O)(=O)Nc2ccc3c(c2)C(=O)N([C@H](C)CO)C[C@H](C)[C@H](CN(C)C(=O)Nc2cccc4ccccc24)OCCCC[C@H](C)O3)cc1,inactive: 1.01
6,C[C@H]1CN([C@@H](C)CO)S(=O)(=O)c2ccc(C#CCN(C)C)cc2O[C@H]1CN(C)Cc1ccc2c(c1)OCO2,inactive: 0.997
7,COCC(=O)N1CCO[C@@H]2[C@H]1CC[C@H]2OC,inactive: 1.05
8,O=C(C[C@@H]1C[C@@H]2c3cc(NS(=O)(=O)c4ccc(F)cc4)ccc3O[C@@H]2[C@H](CO)O1)NCc1ccccc1,inactive: 1.02
9,C[C@@H]1CN([C@@H](C)CO)C(=O)Cc2cc(NC(=O)Cn3cnnn3)ccc2O[C@H]1CN(C)Cc1ccc(C(F)(F)F)cc1,inactive: 0.957
10,C[C@H](CO)N1C[C@H](C)[C@H](CN(C)S(=O)(=O)c2ccccc2)Oc2ccc(NS(=O)(=O)c3ccccc3)cc2CC1=O,inactive: 1.04
11,O=C(CN1CCOCC1)NCC[C@@H]1CC[C@@H](NC(=O)c2ccccc2F)[C@@H](CO)O1,inactive: 1.01
12,COc1ccc2c3c([nH]c2c1)[C@H](CO)N(C[C@]13CCN(CC1)C(=O)Nc1ccccc1)C(=O)Nc1ccc(cc1)F,inactive: 1.01
13,C[C@@H]1CCCCO[C@@H](CN(C)Cc2ccccc2)[C@H](C)CN([C@@H](C)CO)C(=O)c2cc(NS(=O)(=O)c3cccs3)ccc2O1,inactive: 0.899
14,CN(C)CC#Cc1ccc([C@@H]2[C@H](CO)N3C(=O)CN(C(=O)c4cccnc4)C[C@@H]23)cc1,inactive: 1
15,C[C@H](CO)N1C[C@H](C)[C@@H](CN(C)Cc2ccc3c(c2)OCO3)Oc2ccc(NC(=O)CCCN(C)C)cc2CC1=O,inactive: 0.975
16,C[C@H]1CN([C@@H](C)CO)C(=O)CCCn2nncc2CO[C@@H]1CN(C)C(=O)Nc1ccnc(N2CCOCC2)c1,inactive: 0.947
17,CCCCC(CC)CN1CN(CC(CC)CCCC)CC(C)(N)C1 (configuration not stated),inactive: 0.382
18,Cc1noc(C)c1S(=O)(=O)N(C)C[C@H]1OCc2cnnn2CCCC(=O)N([C@H](C)CO)C[C@H]1C,inactive: 0.998
19,COc1cccc(C#Cc2cnc3c(c2)C(=O)N([C@@H](C)CO)C[C@@H](C)[C@H](CN(C)C(=O)C2CCOCC2)O3)c1,inactive: 1
20,CC(C)N1C(=O)CNC1=S,inactive: 0.992
21,C[C@H]1CCCCO[C@H](CN(C)C(=O)Nc2cccc3ccccc23)[C@@H](C)CN([C@@H](C)CO)C(=O)c2cc(NC(=O)Nc3ccc(F)cc3)ccc2O1,inactive: 1.02

row,Structure (SMILES),relative growth
1,C[C@@H]1CN([C@H](C)CO)C(=O)Cc2cc(NC(=O)CCN3CCOCC3)ccc2O[C@H]1CN(C)C(=O)Nc1ccccc1,inactive: 0.987
2,COC(=O)[C@H](Cc1ccccc1)N1CC2=C[C@H](C3CC3)n3c(=O)n(C)c(=O)n3[C@@H]2[C@H]1[C@H](O)Cc1ccccc1,inactive: 1.02
3,CCCNC(=O)N1C[C@@H](C)[C@@H](OC)CN(C)C(=O)c2cc(NS(=O)(=O)CC(F)(F)F)ccc2OC[C@@H]1C,inactive: 0.995
4,Cc1ccc([C@@H]2CC(=O)N[C@@H]2C(N)=O)cc1,inactive: 0.998
5,C[C@@H]1CN([C@H](C)CO)C(=O)c2cc(NS(=O)(=O)c3ccccc3)ccc2O[C@@H](C)CCCCO[C@H]1CN(C)Cc1ccc2c(c1)OCO2,inactive: 0.992
6,COc1ccc2c3c(n(c2c1)C)[C@@H](CO)N(C[C@]13CN(C1)C(=O)Nc1cccc(c1)F)C(=O)C1CCOCC1,inactive: 1.01
7,COc1ccc(NC(=O)N(C)C[C@H]2OCCCC[C@H](C)Oc3ccc(NC(=O)Nc4ccc5c(c4)OCO5)cc3C(=O)N([C@H](C)CO)C[C@@H]2C)cc1,inactive: 0.998
8,CCC=CCC1=C(C)CCC1=O,inactive: 0.878
9,C[C@@H]1CN([C@H](C)CO)C(=O)Cc2cc(NC(=O)Cn3cnnn3)ccc2O[C@@H]1CN(C)C(=O)Nc1ccc2c(c1)OCO2,inactive: 0.949
10,C[C@@H]1CCCCO[C@H](CN(C)Cc2ccncc2)[C@@H](C)CN([C@H](C)CO)C(=O)c2cc(NC(=O)Nc3ccc4c(c3)OCO4)ccc2O1,inactive: 0.995
11,C[C@H](CO)N1C[C@H](C)[C@@H](CN(C)Cc2ccc(-c3ccccc3)cc2)Oc2c(NC(=O)CCC(F)(F)F)cccc2C1=O,inactive: 1.01
12,Cc1n[nH]c(NCc2ccco2)nc1=O,inactive: 0.993
13,C[C@@H]1CN([C@@H](C)CO)C(=O)c2cc(NC(=O)C3CCCCC3)ccc2O[C@@H](C)CCCCO[C@H]1CN(C)Cc1ccc2c(c1)OCO2,inactive: 1
14,COCC(=O)N(C)C[C@H]1Oc2cc(C#Cc3cccnc3)ccc2S(=O)(=O)N([C@H](C)CO)C[C@@H]1C,inactive: 0.985
15,O=C(C[C@H]1CC[C@@H]2[C@H](COC[C@@H](O)CN2C(=O)c2cccnc2)O1)NCC1CC1,inactive: 0.977
16,C[C@H]1CN([C@@H](C)CO)C(=O)Cc2cc(NC(=O)C3CC3)ccc2O[C@H]1CN(C)C(=O)Nc1ccc(F)cc1,inactive: 0.987
17,CCCNC(=O)N(C)C[C@H]1Oc2cc(C#Cc3ccccn3)ccc2S(=O)(=O)N([C@H](C)CO)C[C@@H]1C,inactive: 1.01
18,CC1(C)CC[C@]2(C(=O)O[C@@H]3O[C@H](CO)[C@@H](O[C@H]4OC[C@](O)(CO)[C@H]4O)[C@H](O)[C@H]3O)CC[C@]3(C)C(=CC[C@H]4[C@@]5(C)C[C@@H](O)[C@H](O)[C@@](C)(CO)[C@@H]5[C@H](O)C[C@]43C)[C@@H]2C1,inactive: 1.01
19,C[C@H](CO)N1C[C@H](C)[C@H](CN(C)Cc2ccc3c(c2)OCO3)Oc2c(NC(=O)C3CC3)cccc2C1=O,inactive: 0.997
20,C[C@@H]1CCCCO[C@@H](CN(C)Cc2ccc(Cl)c(Cl)c2)[C@H](C)CN([C@H](C)CO)C(=O)c2cc(NC(=O)C3CCCCC3)ccc2O1,inactive: 0.985
21,O=C(NCc1ccncc1)C(=O)NC[C@H]1OCCN1C(=O)c1ccc(Cl)cc1,inactive: 0.985

row,Structure (SMILES),relative growth
1,CCNc1nc(NCC)nc(OCC#N)n1,inactive: 1.03
2,C[C@H]1CN([C@@H](C)CO)C(=O)c2cc(NC(=O)CCC(F)(F)F)ccc2O[C@@H]1CN(C)Cc1ccc(Oc2ccccc2)cc1,inactive: 1
3,C[C@H](CO)N1C[C@H](C)[C@@H](CN(C)C(=O)Nc2cccc3ccccc23)Oc2c(NC(=O)c3nc4ccccc4s3)cccc2C1=O,inactive: 0.994
4,Cc1ccc(S(=O)(=O)Nc2ccc3c(c2)CC(=O)N([C@H](C)CO)C[C@@H](C)[C@@H](CN(C)C(=O)Nc2ccc(C(F)(F)F)cc2)O3)cc1,inactive: 0.971
5,C[C@@H]1CCCCO[C@H](CN(C)Cc2ccncc2)[C@@H](C)CN([C@@H](C)CO)C(=O)c2cc(NC(=O)C3CCCCC3)ccc2O1,inactive: 0.993
6,NS(=O)(=O)c1ccc(F)c([N+](=O)[O-])c1,inactive: 1.01
7,COC[C@H]1CN(C(=O)c2cccc(OC)c2)N1,inactive: 1.01
8,C=CC(=O)c1ccc2ccccc2c1,inactive: 0.998
9,C[C@H]1CN([C@@H](C)CO)C(=O)CCCn2nncc2CO[C@@H]1CN(C)C(=O)c1cc(-c2ccccc2)on1,inactive: 0.994
10,C[C@@H]1CN([C@@H](C)CO)C(=O)c2cc(C#CC3(O)CCCC3)cnc2O[C@H]1CN(C)C(=O)C1CCOCC1,inactive: 0.996
11,CCCN(C)C[C@H]1OCCCC[C@H](C)Oc2ccc(NC(=O)Nc3cccc4ccccc34)cc2C(=O)N([C@@H](C)CO)C[C@H]1C,inactive: 1.01
12,CC(=O)N(C)C[C@@H]1Oc2ncc(C#C[C@H](C)O)cc2C(=O)N([C@@H](C)CO)C[C@H]1C,inactive: 0.999
13,COCC(=O)Nc1ccc2c(c1)[C@H]1C[C@@H](CC(=O)N3CCOCC3)O[C@H](CO)[C@H]1O2,inactive: 0.991
14,C[C@@H]1CN([C@H](C)CO)C(=O)c2cc(NC(=O)Nc3ccc4c(c3)OCO4)ccc2O[C@H]1CN(C)Cc1ccc(Cl)c(Cl)c1,inactive: 1
15,Cc1ccc(S(=O)(=O)N(C)C[C@@H]2Oc3c(NC(=O)NC(C)C)cccc3C(=O)N([C@H](C)CO)C[C@@H]2C)cc1,inactive: 1
16,Nc1cc(C(=O)N2CCCC2)ccn1,inactive: 1.01
17,COc1ccc(S(=O)(=O)N(C)C[C@H]2OCCCC[C@H](C)Oc3ccc(NC(=O)Nc4ccccc4)cc3C(=O)N([C@@H](C)CO)C[C@H]2C)cc1,inactive: 1.05
18,C[C@@H]1CN([C@@H](C)CO)C(=O)c2cccc(NS(=O)(=O)c3ccccc3)c2O[C@H]1CN(C)Cc1ccc(Oc2ccccc2)cc1,inactive: 1.02
19,CC(=O)N[C@@H](Cc1cccc(F)c1)C(=O)O,inactive: 1.04
20,CCCNC(=O)Nc1ccc2c(c1)OC[C@H](C)N(Cc1ccc(-c3ccccn3)cc1)C[C@H](C)[C@H](OC)CN(C)C2=O,inactive: 1
